From PubChem BioAssay AID1508623 (National Center for Advancing Translational Sciences (NCATS), 2021)
Out of some 48,000 compounds screened, about 450 (0.94%) were called active. Another 19% or so got no clear call; they are omitted. Calls follow the shape of the dose curve; as a rule, active = well fitted inhibition curve with a large enough effect; inconclusive = small, poorly fitted or top-dose-only effect; inactive = no such curve, though single readings can be large or run the other way. This is one part of the list.

experiment: Primary qHTS for Identification of Small Molecule Inhibitors of Huntingtin Promoter Activity; conditions: HEK293 HTT promoter firefly luciferase reporter (activity 0% = vehicle and -100% = no light), 24 h; series mostly up to 57.5 µM; activity change, negative = inhibition: at the top concentration; also: nearly all actives have a fitted effect of over 50% in size
Method in brief: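 Firefly luciferase readout (Dual-Glo, 10 min RT) after 24 h, 37 °C compound exposure (final up to 57.5 uM) of HEK293 reporter cells cultured 24 h beforehand; PTC124 at 50 uM final as control inhibitor; activity scaled vehicle 0%, zero RLU -100%.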

Activity change, negative = inhibition, inactive:
Cc1ccc(S(=O)(=O)C2(C(=O)Nc3ccc(C)c(Cl)c3)CC2)cc1 -0.484%
Cc1ccc(OCC(=O)Nc2ccc(OCc3cc(=O)n4ccsc4n3)cc2)cc1 -4.95%
Cc1ccc(CNC(=O)CCS(=O)(=O)c2cc3c(cc2Cl)NC(=O)CO3)cc1 -1.56%
COc1ccc(N2CCN(CC(O)COc3ccc(C)cc3C)CC2)cc1 (stereo not given) -20.1%
CC(C)(C)C(=O)NC1(C(F)(F)F)NC(=O)N(c2ccc(F)cc2)C1=O (stereo not given) -16.1%
COc1ccc(N2CCN(c3ncnc4c3cnn4-c3ccc(C)c(Cl)c3)CC2)cc1 -9.46%
Cc1ccc(Cl)cc1N1CCN(C(=O)CN2C(=O)COc3ccc(S(=O)(=O)N4CCC(C)CC4)cc32)CC1 -12.9%
COc1ccc(CNC(=O)c2ccc(-c3nc(CSc4ccc(C)cc4)c(C)o3)cc2)cc1OC -25.5%
Cc1nn(C(=O)c2ccccc2)c(C)c1S(=O)(=O)N1CCOCC1 -7.97%
CCC(=O)N1CCc2cc(S(=O)(=O)NC(C(=O)NCc3ccccc3Cl)C(C)C)ccc21 (stereo not given) -5.71%
Cc1c(C(=O)NCc2ccccc2Cl)sc2nc(-c3ccc(F)cc3)cn12 -22.6%
CCOc1ccccc1CNS(=O)(=O)c1ccc2c(c1)C(C)(C)C(=O)N2C -29.7%
CNc1nc(Nc2ccc(C(=O)N3CCOCC3)cc2OC)ncc1Cl -4.45%
Cn1c(=O)oc2cc(S(=O)(=O)N3CCC(C(=O)NCc4ccc(F)cc4)CC3)ccc21 -14.1%
COc1ccc(Nc2nc3cc(Cl)c(Cl)cc3n3cnnc23)cc1Cl -1.26%
CCOC(=O)C1=C(C)NC(C)=C(C(=O)OC)C1c1cccc(Cl)c1Cl (stereo not given) -9.57%
O=C(Nc1nnc(S(=O)(=O)N2CCCC2)s1)c1ccccc1Br -16.5%
Cc1ccccc1Cn1nnc2c(=O)[nH]c(C3CCCN(C(=O)c4ccc(F)cc4)C3)nc21 (stereo not given) -16.7%
CCOC(=O)c1ccc(NC(=O)CSc2nnc(CNC(=O)c3ccc(OC)cc3)n2CC)cc1 -3.71%
COc1ccc(NC(=O)CC2C(=O)N(c3ccc(C)cc3)C(=O)N2Cc2ccc3c(c2)OCO3)cc1 (stereo not given) -16.2%
COc1ccc(N2CCN(S(=O)(=O)c3ccc4c(c3)CCCN4C(C)=O)CC2)cc1 -16.8%
CC1CCN(CCCNC(=O)c2cn(C)c3ccc(S(=O)(=O)N(C)C4CCCCC4)cc3c2=O)CC1 -4.01% [at 11.5 µM]
COc1cc2c(cc1OC)C(COc1ccc(C(C)C)cc1)N(C(=O)c1ccc(S(=O)(=O)N3CCCC3)cc1)CC2 (stereo not given) -61.1%
Cc1ccc2c(c1)N(C(=O)CCC(=O)NCc1cccs1)CCO2 -18.1%
Cc1ccc(C)c(CN2C(=O)c3ccccc3S(=O)c3ccc(C(=O)N4CCN(c5ccccc5F)CC4)cc32)c1 (stereo not given) -16.1%
